Experimental data: the supplement of paper PMC12217912
Some of the results follow. The full chains were built here from the parent and the listed change. Values near 0.05 are background.

B1: TEV protease; numbered along this chain (parent)
chain: MGESLFKGPRDYNPISSSICHLTNESDGHTTSLYGIGFGPFIITNKHLFRRNNGTLVVQSLHGVFKVKDTTTLQQHLVDGRDMIIIRMPKDFPPFPQKLKFREPQREERICLVTTNFQTKSMSSMVSDTSCTFPSGDGIFWKHWIQTKDGQCGSPLVSTRDGFIVGIHSASNFTNTNNYFTSVPKNFMELLTNQEAQQWVSGWRLNADSVLWGGHKVFMVKPEEPFQPVKEATQL

Variants of: B1
Experiment: raw area under fraction-flipped curve 0-4 h after induction (AUC4h, not background-subtracted), DNA-recorder readout of cleavage of the substrate (dimensionless); higher = more cleavage of the substrate by the protease variant
Conditions: temperature: 34 °C; time window: 0-4 h after rhamnose induction
Procedure: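 In vivo DNA recorder in E. coli TOP10(DE3) ΔrhaA at 34 °C. Each TEVp single-site mutant (parent TEVp 0) is paired with a single-site variant of the 7-mer TEVs (canonical ENLYFQ|S). The substrate sits between flexible linkers in a Bxb1-sfGFP-TEVs-SsrA fusion, so cleavage stabilises Bxb1 and speeds flipping of a recombination array, read by NGS. The value is the raw area under the fraction-flipped curve over 0-4 h after rhamnose induction (AUC4h), with ≥20 reads per time point. It is not background-subtracted; inactive controls average about 0.047.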
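Also: Bxb1 expression induced with 0.2% (w/v) L-rhamnose at OD600 near 0.5, cultures sampled hourly, flipped fraction per protease–substrate barcode pair counted by paired-end Illumina sequencing.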

Variant | area with substrate ENLYAQS | area with substrate ENLYCQS | area with substrate ENLYDQS | area with substrate ENLYEQS | area with substrate ENLYGQS | area with substrate ENLYHQS | area with substrate ENLYIQS | area with substrate ENLYKQS | area with substrate ENLYMQS | area with substrate ENLYPQS | area with substrate ENLYQQS | area with substrate ENLYTQS | area with substrate ENLYVQS | area with substrate ENLYRQS | area with substrate ENLYSQS | area with substrate ENLYWQS | area with substrate ENLYLQS | area with substrate ENLYNQS | area with substrate ENLYYQS
I42M | 0.0643 | 0.0923 | 0.0535 | 0.0635 | 0.0657 | 0.0649 | 0.118 | 0.0575 | 0.0818 | 0.0733 | 0.0833 | 0.0749 | 0.138 |  |  |  |  |  | 
I85G | 0.054 |  | 0.0531 | 0.0453 |  | 0.0486 | 0.0553 | 0.0436 | 0.055 | 0.0414 | 0.0451 | 0.0438 |  | 0.0538 | 0.0509 | 0.0513 |  |  | 
F41R | 0.0553 |  | 0.0497 | 0.0567 | 0.0631 | 0.0448 | 0.0583 | 0.0531 |  | 0.0484 | 0.062 |  | 0.0653 | 0.0555 |  | 0.0554 | 0.0505 | 0.0494 | 
F41K | 0.0271 |  | 0.0535 | 0.0556 |  | 0.0631 | 0.0993 | 0.049 | 0.0516 |  | 0.0571 | 0.0303 | 0.0543 | 0.053 | 0.0538 | 0.0467 |  | 0.0535 | 
S4F | 0.0896 |  | 0.0584 | 0.0722 | 0.0753 | 0.0722 | 0.157 |  | 0.106 |  | 0.0922 |  | 0.163 |  | 0.104 |  | 0.121 | 0.094 | 
G54D | 0.0444 |  | 0.0683 | 0.0618 | 0.0624 | 0.0608 | 0.0868 | 0.0279 | 0.0645 | 0.0761 | 0.073 | 0.0598 | 0.074 | 0.0643 | 0.0672 | 0.0667 |  | 0.0606 | 0.0587
C20K | 0.0436 | 0.0338 | 0.0514 | 0.049 | 0.064 | 0.0481 | 0.0446 | 0.0382 | 0.0455 | 0.0528 | 0.0311 | 0.0418 | 0.0513 | 0.0504 | 0.0486 | 0.0438 |  | 0.05 | 0.0479
G80F | 0.058 |  |  | 0.0629 |  | 0.0702 | 0.126 | 0.0637 | 0.0756 | 0.0701 | 0.0674 |  |  |  |  | 0.0696 |  | 0.0651 | 0.0421
G80Y | 0.0774 | 0.076 | 0.0672 |  |  | 0.0642 | 0.107 | 0.0682 |  |  | 0.062 |  | 0.095 | 0.0616 | 0.0459 |  | 0.0832 | 0.0679 | 
D27Y | 0.0617 | 0.0826 | 0.0588 | 0.0578 | 0.0555 | 0.0609 | 0.097 | 0.0622 | 0.0744 | 0.0556 | 0.0625 | 0.0675 | 0.0973 | 0.0658 | 0.0742 | 0.0778 | 0.0562 | 0.0689 | 
R87P | 0.0666 |  | 0.0658 | 0.0572 |  | 0.0518 |  | 0.073 |  | 0.0594 | 0.0591 | 0.0477 |  | 0.0506 | 0.0615 |  |  | 0.0548 | 
T31H | 0.0695 |  | 0.0653 | 0.0363 | 0.0769 | 0.0469 | 0.103 | 0.0691 | 0.0716 |  | 0.0681 | 0.0767 | 0.104 |  | 0.0668 | 0.062 |  | 0.061 | 
F49E | 0.0519 | 0.0567 | 0.0444 | 0.0568 | 0.0548 | 0.0435 | 0.0518 | 0.0416 | 0.0535 | 0.0535 | 0.0534 |  |  |  | 0.0498 | 0.057 |  | 0.0574 | 0.0608
